This is one part of the list.

This assay relates to PfSIP2 AP2 domain 1 (GST-tagged). The experiment in a line: gcPBM binding intensity (ln(normalized median fluorescence intensity)); higher = stronger DNA binding. The method in brief:
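Binding intensity is defined as the maximum Masliner-normalised natural-log median intensity across replicate spots for either probe orientation. It was measured on an Agilent 4 × 180k array of primer-extended double-stranded 36-bp intergenic genomic probes and negative controls, to which GST-tagged P. falciparum DNA-binding domains made in E. coli were applied for 1 h in 1× PBS with 1% milk, 0.2 mg/ml BSA, 0.5% salmon testes DNA and 0.03% Triton X-100. Detection was by Alexa488 anti-GST antibody and scanning at 488 nm.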
Turning to “AAATATAATATATGCACACATACATACATATATATA [CACACA_site104]”, the “gcPBM binding intensity (ln)” value was 7.73. Regarding “TAATTAAATATTTTCCTACAATTAATAAGAAAAGGA [XGTACX_negctrl_site565]”, the “gcPBM binding intensity (ln)” value is 7.02. As for “AAGAATAATAACAAATGTACTTATATAAAGTATTAT [XGTACX_site2336]”, the “gcPBM binding intensity (ln)” value amounted to 7.08. Take “TATTAAGAAGAAAATTCACACATTTGTACCTCTCTT [CACACA_site4822]”: the “gcPBM binding intensity (ln)” value was determined as 6.62. Regarding “CAGCTCTTAAAAATTACACACATATACGCATATATA [CACACA_site3267]”, the “gcPBM binding intensity (ln)” value stood at 7.15.

Take “TTACAAAAATGTGGTTGTACACAAACAAAAAAAATA [XGTACX_site8506]”: the “gcPBM binding intensity (ln)” value was 7.06. As for “GAAAATAGCTAAAATACACACAATTAAAAGTTATTA [CACACA_site7614]”, the “gcPBM binding intensity (ln)” value stood at 6.62. The same measure for “TATAAATAGATATATACACACATGAAAATAAATAAA [CACACA_site7228]”: 7.01; for “TATAATATAATATATGCACACAAATATGTATATATG [CACACA_site8664]”: 7.15.

Regarding AACTATATATAACTAGTGCAAAGACAATATTTTAAA, the “gcPBM binding intensity (ln)” value was 8.03. For “AAAATTTAATATAATGCACACATAAAAAAAAAAAAT [CACACA_site8425]” the value was 7.69; for “TTCTTTAAAATAAATTGTACTAACATATATATATAT [XGTACX_site6045]”, 9.61.

Consider “TTGTTTATTTTTTATTACTATAAAGATGTTATATAT [CACACA_negctrl_site1506]”, for which the “gcPBM binding intensity (ln)” value amounted to 7. For “TATATAAATATATATGTACACACATATACATGTTGA [CACACA_site9022]” the value was 7.09.

As to ATAATATCTTTATGTGTGCACATATATATATATATA, the “gcPBM binding intensity (ln)” value came to 9.64.

On to “TTTTTTTTTTTTTTTGCACACTTGATTTGAGCTTAT [CACACA_site4042]”, for which the “gcPBM binding intensity (ln)” value worked out at 7.41. For “AAAATAAAAATACACATTTTTTTTTTTTTTTTTTTT [TGCATGCA_negctrl_site515]” the value was 8; for “TTTTTTTTTGTTTACACACCCAAATCACATACATAT [CACACA_site4052]”, 7.26; for “TAAATAATTTATAAGTGTACTATTATTGCACGAATA [XGTACX_site7715]”, 7.94. For “AAAAAAAACAGACACACACACATAAATATATATAAA [CACACA_site148]” the value was 6.95. As for “ATGATTTTTTCTGTATGTACATAAAAATAAAATTCT [XGTACX_site5698]”, the “gcPBM binding intensity (ln)” value worked out at 7.02. For “CATTAGGTCTTTTGTACATGCAAGTGTGTGCGTAAA [TGCATGCA_site255]” the value was 7.46.

Regarding “ACACATATGCATATATGTACATAATATATTAAACTT [XGTACX_site5975]”, the “gcPBM binding intensity (ln)” value was 7.06. The same measure for “TAAAAAATAAATATATGTACGCAATAAATGTGTTAA [XGTACX_site4043]”: 7.13; for “AAAAAAAAAAGACACACACACACACTAATACATACA [CACACA_site6473]”: 6.98.

For the origin of these results see the supplement of paper PMC11417369.
